{"source": "the supplement of paper PMC8728848", "binders": {"B1": {"name": "HPA (Helix pomatia), Q575S3 (protein)", "chain": "MWAHLTGLLLICALSLSAAQRAQTGEIDCGSDSSWPKDPSDNPNRDNTREIVKHVTFSPQFCREPKVILSVTTLDAEHTKNLRYEARLKSVSPSGLSASCYSWHDGTIYRMKLSWLAVED"}}, "assay_in_all_cases": "glycan array binding signal (z-score within array); higher = stronger binding", "settings_in_all_cases": "glycan notation: IUPAC condensed, linker removed", "key": {"[1]": {"molecular_target": "Gal(b1-4)GlcNAc(b1-3)Gal(b1-4)GlcNAc(b1-3)Gal(b1-4)GlcNAc(b1-2)[Gal(b1-4)GlcNAc(b1-3)Gal(b1-4)GlcNAc(b1-3)Gal(b1-4)GlcNAc(b1-6)]Man(a1-6)[Gal(b1-4)GlcNAc(b1-3)Gal(b1-4)GlcNAc(b1-3)Gal(b1-4)GlcNAc(b1-2)Man(a1-3)]Man(b1-4)GlcNAc(b1-4)[Fuc(a1-6)]GlcNAc", "procedure,_shortened": "(§1)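 Glycan array data were curated from 3228 arrays in the Consortium for Functional Glycomics database and kept only where the protein sequence was available. Glycan names were converted to IUPAC-condensed notation, and columns mapping to the same glycan were averaged. The binding signal is a within-array Z-score, averaged across arrays of the same protein sequence at different concentrations or buffers and across linkers. Negative Z-scores can be read as non-binding.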"}, "[2]": {"molecular_target": "Gal(b1-4)GlcNAc(b1-3)Gal(b1-4)GlcNAc(b1-3)Gal(b1-4)GlcNAc(b1-3)Gal(b1-4)GlcNAc(b1-2)Man(a1-3)[Gal(b1-4)GlcNAc(b1-3)Gal(b1-4)GlcNAc(b1-3)Gal(b1-4)GlcNAc(b1-3)Gal(b1-4)GlcNAc(b1-2)Man(a1-6)]Man(b1-4)GlcNAc(b1-4)GlcNAc", "procedure,_shortened": "as §1"}, "[3]": {"molecular_target": "Gal(b1-4)GlcNAc(b1-3)Gal(b1-4)GlcNAc(b1-3)Gal(b1-4)GlcNAc(b1-3)Gal(b1-4)GlcNAc(b1-2)Man(a1-3)[Gal(b1-4)GlcNAc(b1-3)Gal(b1-4)GlcNAc(b1-3)Gal(b1-4)GlcNAc(b1-3)Gal(b1-4)GlcNAc(b1-2)Man(a1-6)]Man(b1-4)GlcNAc(b1-4)[Fuc(a1-6)]GlcNAc", "procedure,_shortened": "as §1"}, "[4]": {"molecular_target": "Gal(b1-4)GlcNAc(b1-3)Gal(b1-4)GlcNAc(b1-3)Gal(b1-4)GlcNAc(b1-3)Gal(b1-4)GlcNAc(b1-2)[Gal(b1-4)GlcNAc(b1-3)Gal(b1-4)GlcNAc(b1-3)Gal(b1-4)GlcNAc(b1-3)Gal(b1-4)GlcNAc(b1-6)]Man(a1-6)[Gal(b1-4)GlcNAc(b1-3)Gal(b1-4)GlcNAc(b1-3)Gal(b1-4)GlcNAc(b1-3)Gal(b1-4)GlcNAc(b1-2)Man(a1-3)]Man(b1-4)GlcNAc(b1-4)[Fuc(a1-6)]GlcNAc", "procedure,_shortened": "as §1"}, "[5]": {"molecular_target": "Gal(b1-4)GlcNAc(b1-3)Gal(b1-4)GlcNAc(b1-3)Gal(b1-4)GlcNAc(b1-3)Gal(b1-4)GlcNAc(b1-3)Gal(b1-4)GlcNAc(b1-2)Man(a1-3)[Gal(b1-4)GlcNAc(b1-3)Gal(b1-4)GlcNAc(b1-3)Gal(b1-4)GlcNAc(b1-3)Gal(b1-4)GlcNAc(b1-3)Gal(b1-4)GlcNAc(b1-2)Man(a1-6)]Man(b1-4)GlcNAc(b1-4)GlcNAc", "procedure,_shortened": "as §1"}, "[6]": {"molecular_target": "Gal(b1-4)GlcNAc(b1-3)Gal(b1-4)GlcNAc(b1-3)Gal(b1-4)GlcNAc(b1-3)Gal(b1-4)GlcNAc(b1-3)Gal(b1-4)GlcNAc(b1-2)Man(a1-3)[Gal(b1-4)GlcNAc(b1-3)Gal(b1-4)GlcNAc(b1-3)Gal(b1-4)GlcNAc(b1-3)Gal(b1-4)GlcNAc(b1-3)Gal(b1-4)GlcNAc(b1-2)Man(a1-6)]Man(b1-4)GlcNAc(b1-4)[Fuc(a1-6)]GlcNAc", "procedure,_shortened": "as §1"}, "[7]": {"molecular_target": "Gal(b1-4)GlcNAc(b1-3)Gal(b1-4)GlcNAc(b1-3)Gal(b1-4)GlcNAc(b1-3)Gal(b1-4)GlcNAc(b1-3)Gal(b1-4)GlcNAc(b1-2)[Gal(b1-4)GlcNAc(b1-3)Gal(b1-4)GlcNAc(b1-3)Gal(b1-4)GlcNAc(b1-3)Gal(b1-4)GlcNAc(b1-3)Gal(b1-4)GlcNAc(b1-6)]Man(a1-6)[Gal(b1-4)GlcNAc(b1-3)Gal(b1-4)GlcNAc(b1-3)Gal(b1-4)GlcNAc(b1-3)Gal(b1-4)GlcNAc(b1-3)Gal(b1-4)GlcNAc(b1-2)Man(a1-3)]Man(b1-4)GlcNAc(b1-4)[Fuc(a1-6)]GlcNAc", "procedure,_shortened": "as §1"}, "[8]": {"molecular_target": "Gal(b1-4)GlcNAc(b1-3)Gal(b1-4)GlcNAc(b1-3)Gal(b1-4)GlcNAc(b1-3)Gal(b1-4)GlcNAc(b1-3)Gal(b1-4)GlcNAc(b1-3)Gal(b1-4)GlcNAc(b1-2)Man(a1-3)[Gal(b1-4)GlcNAc(b1-3)Gal(b1-4)GlcNAc(b1-3)Gal(b1-4)GlcNAc(b1-3)Gal(b1-4)GlcNAc(b1-3)Gal(b1-4)GlcNAc(b1-3)Gal(b1-4)GlcNAc(b1-2)Man(a1-6)]Man(b1-4)GlcNAc(b1-4)GlcNAc", "procedure,_shortened": "as §1"}, "[9]": {"molecular_target": "Gal(b1-4)GlcNAc(b1-3)Gal(b1-4)GlcNAc(b1-3)GalNAc", "procedure,_shortened": "as §1"}, "[10]": {"molecular_target": "Gal(b1-4)GlcNAc(b1-3)Gal(b1-4)GlcNAc(b1-3)[Gal(b1-4)GlcNAc(b1-3)Gal(b1-4)GlcNAc(b1-6)]GalNAc", "procedure,_shortened": "as §1"}, "[11]": {"molecular_target": "Gal(b1-4)GlcNAc(b1-3)Gal(b1-4)GlcNAc(b1-6)[Gal(b1-3)]GalNAc", "procedure,_shortened": "as §1"}, "[12]": {"molecular_target": "Gal(b1-4)GlcNAc(b1-3)Gal(b1-4)[Fuc(a1-3)GlcNAc(b1-6)]Gal(b1-4)Glc", "procedure,_shortened": "as §1"}, "[13]": {"molecular_target": "Gal(b1-4)GlcNAc(b1-3)Gal(b1-4)[Fuc(a1-3)]GlcNAc(b1-3)Gal(b1-4)[Fuc(a1-3)]GlcNAc", "procedure,_shortened": "as §1"}, "[14]": {"molecular_target": "Gal(b1-4)GlcNAc(b1-3)GalNAc", "procedure,_shortened": "as §1"}, "[15]": {"molecular_target": "Gal(b1-4)GlcNAc(b1-3)[Fuc(a1-3)GlcNAc(b1-6)]Gal(b1-4)Glc", "procedure,_shortened": "as §1"}, "[16]": {"molecular_target": "Gal(b1-4)GlcNAc(b1-3)[Gal(b1-4)GlcNAc(b1-6)]Gal(b1-4)GlcNAc", "procedure,_shortened": "as §1"}, "[17]": {"molecular_target": "Gal(b1-4)GlcNAc(b1-3)[Gal(b1-4)GlcNAc(b1-6)]GalNAc", "procedure,_shortened": "as §1"}, "[18]": {"molecular_target": "Gal(b1-4)GlcNAc(b1-3)[GlcNAc(b1-6)]Gal(b1-4)GlcNAc", "procedure,_shortened": "as §1"}, "[19]": {"molecular_target": "Gal(b1-4)GlcNAc(b1-6)Gal(b1-4)GlcNAc", "procedure,_shortened": "as §1"}, "[20]": {"molecular_target": "Gal(b1-4)GlcNAc(b1-6)Gal(b1-4)GlcNAc(b1-6)GalNAc", "procedure,_shortened": "as §1"}, "[21]": {"molecular_target": "Gal(b1-4)GlcNAc(b1-6)GalNAc", "procedure,_shortened": "as §1"}, "[22]": {"molecular_target": "Gal(b1-4)GlcNAc(b1-6)[Gal(b1-3)]GalNAc", "procedure,_shortened": "as §1"}, "[23]": {"molecular_target": "Gal(b1-4)GlcNAc(b1-6)[Gal(b1-4)GlcNAc(b1-3)]GalNAc", "procedure,_shortened": "as §1"}}, "note": "Some of the results follow.", "data": [{"binder": "B1", "values": [{"measurement": "glycan array binding signal (z-score)", "setting": "[1]", "value": -0.25}, {"measurement": "glycan array binding signal (z-score)", "setting": "[2]", "value": -0.242}, {"measurement": "glycan array binding signal (z-score)", "setting": "[3]", "value": -0.253}, {"measurement": "glycan array binding signal (z-score)", "setting": "[4]", "value": -0.228}, {"measurement": "glycan array binding signal (z-score)", "setting": "[5]", "value": -0.248}, {"measurement": "glycan array binding signal (z-score)", "setting": "[6]", "value": -0.253}, {"measurement": "glycan array binding signal (z-score)", "setting": "[7]", "value": -0.242}, {"measurement": "glycan array binding signal (z-score)", "setting": "[8]", "value": -0.231}, {"measurement": "glycan array binding signal (z-score)", "setting": "[9]", "value": -0.192}, {"measurement": "glycan array binding signal (z-score)", "setting": "[10]", "value": -0.189}, {"measurement": "glycan array binding signal (z-score)", "setting": "[11]", "value": -0.216}, {"measurement": "glycan array binding signal (z-score)", "setting": "[12]", "value": -0.224}, {"measurement": "glycan array binding signal (z-score)", "setting": "[13]", "value": -0.27}, {"measurement": "glycan array binding signal (z-score)", "setting": "[14]", "value": -0.26}, {"measurement": "glycan array binding signal (z-score)", "setting": "[15]", "value": -0.23}, {"measurement": "glycan array binding signal (z-score)", "setting": "[16]", "value": -0.273}, {"measurement": "glycan array binding signal (z-score)", "setting": "[17]", "value": -0.252}, {"measurement": "glycan array binding signal (z-score)", "setting": "[18]", "value": -0.269}, {"measurement": "glycan array binding signal (z-score)", "setting": "[19]", "value": -0.271}, {"measurement": "glycan array binding signal (z-score)", "setting": "[20]", "value": -0.312}, {"measurement": "glycan array binding signal (z-score)", "setting": "[21]", "value": -0.256}, {"measurement": "glycan array binding signal (z-score)", "setting": "[22]", "value": -0.266}, {"measurement": "glycan array binding signal (z-score)", "setting": "[23]", "value": -0.245}]}]}
